Experimental data: publication PMC9911399, “Two distinct binding modes provide the RNA-binding protein RbFox with extraordinary sequence specificity”
Positions count from the first letter of the chain named. The list shows a part of the results.

B1: UCCGGAU (DNA:RNA)
RNA: GGGAGACCGGAAUUCAGAUUGUCCUCCGGAUUUAAAUCCCGUCGUAGCCACCA
DNA 1: CAATCTGAATTCCGGTCTCCC
DNA 2: TGGTGGCTACGACGGGATT
B2: UGAUACA (DNA:RNA)
RNA: B1 RNA with C26G, C27A, G28U, G29A, A30C, U31A
DNA 1: CAATCTGAATTCCGGTCTCCC
DNA 2: TGGTGGCTACGACGGGATT
B3: GCAGCGU (DNA:RNA)
RNA: B1 RNA with U25G, C27A, G29C, A30G
DNA 1: CAATCTGAATTCCGGTCTCCC
DNA 2: TGGTGGCTACGACGGGATT
B4: CACCCUG (DNA:RNA)
RNA: B1 RNA with U25C, C26A, G28C, G29C, A30U, U31G
DNA 1: CAATCTGAATTCCGGTCTCCC
DNA 2: TGGTGGCTACGACGGGATT
B5: CACCUCG (DNA:RNA)
RNA: B1 RNA with U25C, C26A, G28C, G29U, A30C, U31G
DNA 1: CAATCTGAATTCCGGTCTCCC
DNA 2: TGGTGGCTACGACGGGATT
B6: CAGGCGG (DNA:RNA)
RNA: B1 RNA with U25C, C26A, C27G, G29C, A30G, U31G
DNA 1: CAATCTGAATTCCGGTCTCCC
DNA 2: TGGTGGCTACGACGGGATT
B7: ACUACAC (DNA:RNA)
RNA: B1 RNA with U25A, C27U, G28A, G29C, U31C
DNA 1: CAATCTGAATTCCGGTCTCCC
DNA 2: TGGTGGCTACGACGGGATT
B8: GCGCUAU (DNA:RNA)
RNA: B1 RNA with U25G, C27G, G28C, G29U
DNA 1: CAATCTGAATTCCGGTCTCCC
DNA 2: TGGTGGCTACGACGGGATT
B9: CAUAUCC (DNA:RNA)
RNA: GGGAGACCGGAAUUCAGAUUGUCCCAUAUCCUUAAAUCCCGUCGUAGCCACCA
DNA 1: CAATCTGAATTCCGGTCTCCC
DNA 2: TGGTGGCTACGACGGGATT

Each binder was assayed against T1, RBFOX1 RRM RbFoxmut (Fox-RRM*) (Homo sapiens, UniProt Q9NWB1 109-208, R118D;E147R;N151S;E152T) (assay: EMSA; HiTS-Eq, 1 nM pool, 10 min; buffer printed only for the single-RNA assays: 10 mM Tris pH 7.5, 150 mM NaCl, 3.4 mM EDTA, 0.001% NP-40, 30 C). Details: tags: His6 N-terminal (pET28a); label: 5' 32P.
T1 sequence: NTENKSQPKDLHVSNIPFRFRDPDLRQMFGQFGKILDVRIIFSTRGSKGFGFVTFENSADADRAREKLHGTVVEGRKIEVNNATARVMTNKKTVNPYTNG
In short: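 Relative association constants, normalised to the cognate motif, were derived by comparing read counts of each RNA species with those of the control reaction. The RNA sequenced was the free fraction, separated by 8% native PAGE after a 10 min equilibration in 50 µL of 1 nM 5′-radiolabelled RNA (7 randomized nucleotides) with increasing concentrations of purified wild-type or mutant RbFox RRM.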

Binder | binding signal
B1 | 0.0634 KA relative to UGCAUGU
B2 | 0.0939 KA relative to UGCAUGU
B3 | 0.121 KA relative to UGCAUGU
B4 | 0.0925 KA relative to UGCAUGU
B5 | 0.126 KA relative to UGCAUGU
B6 | 0.107 KA relative to UGCAUGU
B7 | 0.0796 KA relative to UGCAUGU
B8 | 0.0973 KA relative to UGCAUGU
B9 | 0.0805 KA relative to UGCAUGU
